Data taken from PMC4336329 (PLoS ONE, 2015).
About 2,200 (0.71%) of roughly 310,000 compounds showed an effect of 50% or more. The effect is printed as a negative number. Some of the results follow.

molecular target: human ether-à-go-go-related gene (hERG) potassium channel (human, UniProt Q12809); assay: primary screen, population patch clamp on CHO cells stably expressing hERG
Sequence (Q12809 whole entry, looked up): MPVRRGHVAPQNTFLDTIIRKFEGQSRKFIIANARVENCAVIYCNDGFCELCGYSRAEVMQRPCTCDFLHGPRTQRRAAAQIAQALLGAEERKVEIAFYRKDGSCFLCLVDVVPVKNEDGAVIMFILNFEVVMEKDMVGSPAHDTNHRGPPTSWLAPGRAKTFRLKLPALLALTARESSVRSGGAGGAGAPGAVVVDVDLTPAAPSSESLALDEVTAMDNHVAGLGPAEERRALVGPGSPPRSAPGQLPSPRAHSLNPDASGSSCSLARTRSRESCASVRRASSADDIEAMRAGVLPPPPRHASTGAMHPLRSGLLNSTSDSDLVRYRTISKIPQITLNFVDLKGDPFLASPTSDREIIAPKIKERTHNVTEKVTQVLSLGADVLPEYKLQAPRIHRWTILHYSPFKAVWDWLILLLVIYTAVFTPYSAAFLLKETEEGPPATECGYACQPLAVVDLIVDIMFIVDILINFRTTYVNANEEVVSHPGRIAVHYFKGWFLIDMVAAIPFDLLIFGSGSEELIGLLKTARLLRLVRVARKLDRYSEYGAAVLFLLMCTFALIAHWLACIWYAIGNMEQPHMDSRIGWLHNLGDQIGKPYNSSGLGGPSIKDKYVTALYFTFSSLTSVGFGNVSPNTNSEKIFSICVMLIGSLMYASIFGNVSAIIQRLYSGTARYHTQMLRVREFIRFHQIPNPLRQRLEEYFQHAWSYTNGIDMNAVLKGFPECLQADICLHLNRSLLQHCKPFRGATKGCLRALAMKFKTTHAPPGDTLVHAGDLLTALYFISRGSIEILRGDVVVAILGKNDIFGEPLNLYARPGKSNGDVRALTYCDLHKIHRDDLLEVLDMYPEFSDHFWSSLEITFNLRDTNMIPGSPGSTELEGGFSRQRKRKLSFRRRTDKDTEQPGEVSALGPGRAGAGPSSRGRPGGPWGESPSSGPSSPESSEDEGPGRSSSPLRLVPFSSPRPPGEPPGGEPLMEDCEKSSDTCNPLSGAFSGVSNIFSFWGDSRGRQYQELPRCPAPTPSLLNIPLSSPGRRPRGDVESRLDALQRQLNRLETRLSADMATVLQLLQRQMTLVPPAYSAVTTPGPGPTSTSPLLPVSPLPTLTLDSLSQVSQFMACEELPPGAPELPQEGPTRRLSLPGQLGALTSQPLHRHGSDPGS

| SMILES | hERG current change (%, negative = inhibition) at 1uM [%] |
| --- | --- |
| CCOc1cccc2c1OC1(C)CC2NC(=O)N1c1cccc(C(=O)N2CCN(c3ccccn3)CC2)c1 (stereo not shown) | 10.5 |
| COc1ccc(CC(=O)NCc2nnc(SCC(=O)Nc3nccs3)n2-c2ccccc2)cc1 | 2.57 |
| N#CCCCSc1nnc(-c2ccccn2)o1 | 8.28 |
| O=C(CNc1ccccc1F)Nc1cc(S(=O)(=O)N2CCCCC2)ccc1Cl | 7.94 |
| CCOC(=O)c1c(C)[nH]c(C)c1C(=O)COC(=O)c1cc(OC)c(OC)cc1OC | 8.86 |
| O=C(O)c1ccc(OCCOc2ccccc2)cc1 | 1.14 |
| C=CCOc1c(Br)cc(C2C3=C(CCCC3=O)N(C)C3=C2C(=O)CCC3)cc1OCC | 8.43 |
| CS(=O)(=O)N1N=C(c2ccccc2)CC1c1ccc2c(c1)OCO2 (stereo not shown) | 11.6 |
| O=C(COC(=O)CNC(=O)c1cccc(Br)c1)Nc1nnc(-c2ccccc2)o1 | 9.64 |
| CCOC(=O)c1sc(N)c(C#N)c1COC(=O)CNC(=O)c1cc(OC)c(OC)c(OC)c1 | 4.68 |
| CCCCn1nc(CC(=O)O)c2ccccc2c1=O | 15.4 |
| CCOc1cc(/C=C2\SC(=O)N=C2N)ccc1O | 14.1 |
| C=CCn1c(SCc2c(Cl)cccc2Cl)nnc1-c1cccnc1 | -2.22 |
| CC(C(=O)Nc1ccc(S(=O)(=O)N2CCOCC2)cc1)N(c1ccccc1)S(C)(=O)=O (stereo not shown) | 9.96 |
| S=C(Nc1ccccc1)N1CCN(c2ccc(N3CCOCC3)nn2)CC1 | 9.8 |
| C=CCNC(=O)c1ccc(-n2cccc2)cc1 | 14.9 |
| Cc1cc(NC(=O)COC(=O)CCS(=O)(=O)c2ccc(Cl)cc2)no1 | 14.3 |
| Cc1nnc(-c2cccc(Br)c2)c2cn(-c3cccc(Br)c3)nc12 | 5.15 |
| Cc1csc(NC(=O)CSc2nc(=O)[nH]c3c2CCCC3)n1 | 11.3 |
| CCOc1ncccc1C(=O)Nc1ccc(F)c(Cl)c1 | 13.9 |
| C#CCSc1nnnn1-c1ccc(OCC)cc1 | 6.72 |
| C=CCN(c1ccc(Cl)cc1)S(=O)(=O)c1cccc(C(=O)OCC(=O)N(C)C)c1 | 18.2 |
| CC(C)(C)NC(=O)C(c1ccco1)N(C(=O)Cn1nnc(-c2ccc(F)cc2)n1)c1ccccc1F (stereo not shown) | 4.46 |
| COc1ccccc1NC(=O)Cn1nc(Cc2cccnc2)c2ccccc2c1=O | 12.7 |
| Cc1c(C)n(Cc2ccccc2)c2ccc(C(=O)OCCCN(C)C)cc12 | 12.1 |
| CCCCN(CC)CCNC(=O)c1cn(CCOC)c(=O)c2c1c1ccccc1n2C | 7.47 |
| CCCCn1c(N)c(N(Cc2ccccc2OC)C(=O)C(C)C)c(=O)[nH]c1=O | 13.6 |
| COc1ccc(C(=O)NN2C(=S)N(c3ccc(OC)cc3)C(=O)C2CC(N)=O)cc1 (stereo not shown) | 14.7 |

| SMILES | hERG current change (%, negative = inhibition) at 1uM [%] |
| --- | --- |
| COc1cccc(Sc2nc(-c3ccccc3)ncc2S(C)(=O)=O)c1 | 9.48 |
| CC(C)N1CCC(NC(=O)Nc2ccccc2)CC1 | 0.863 |
| C=C(C)C(=O)Nc1cccc(C2=NOC3(C2)C[C@H](C(N)=O)N(C(=O)C(c2ccccc2)c2ccccc2)C3)c1 (stereo partly shown) | -17 |
| Cc1ccccc1NC(=O)CN1C(=O)NC(C)(CCc2ccccc2)C1=O (stereo not shown) | 9.99 |
| CCOC(=O)c1c(-c2ccc(C)cc2C)csc1NC(=O)CSc1nnnn1C | -3.8 |
| O=C(NCc1cccc(F)c1F)C1CCC(=O)N(C2CC2)C1 (stereo not shown) | 20.2 |
| O=C(NCc1ccc2c(c1)OCO2)c1cccc(C(=O)NCc2ccc3c(c2)OCO3)c1 | 7.02 |
| Cc1ccc(Cl)cc1-c1ccc(C=Nc2ccc(N3CCOCC3)cc2)o1 | 11.3 |
| COC(=O)c1cccnc1-n1c(=O)c2cccnc2n(Cc2ccc([N+](=O)[O-])cc2)c1=O | 3.05 |
| CCSc1nc(N)nc(-c2cccs2)c1C#N | 8.35 |
| O=C(Nc1nncs1)C(Sc1ccccc1)c1ccccc1 (stereo not shown) | 9.4 |
| CN(C)CCN(CC1CCCN(Cc2ccccc2F)C1)C(=O)Cc1c(F)cccc1F (stereo not shown) | 9.43 |
| CS(=O)(=O)N1CCN(c2ccc(Cl)cc2[N+](=O)[O-])CC1 | 5.63 |
| CN(C)C=O.COc1ccc(/C=C/c2nc3ccccc3c(=O)n2-c2cccc(C(=O)O)c2)cc1 | 1.21 |
| CCn1c(C(=O)NCc2cccnc2)cc2sc(Cl)cc21 | -15.4 |
| CCCCOC(=O)C1=C(C)NC(=O)NC1c1ccccc1 (stereo not shown) | 9.04 |
| O=C(NC1CCCCC1)c1cccs1 | 10.5 |
| COc1ccc(C(=O)N2C(=S)NC(=O)/C2=C\c2ccc(C)cc2)cc1 | 6.5 |
| O=C(N/N=C/c1ccc[nH]1)c1sc2ccccc2c1Cl | -4.02 |
| COc1ccc(CCNC(=O)COc2ncnc3ccccc23)cc1 | 3.52 |
| O=C(Cn1cnc2c(nnn2Cc2ccc(Cl)cc2)c1=O)NCC1CCCO1 (stereo not shown) | 6.32 |
| Cc1cc(C)cc(N(C(=O)c2csnn2)C(C(=O)NC2CCCCC2)c2ccncc2)c1 (stereo not shown) | 10.6 |
| Cc1ccc(CCNC(=O)C2CCN(S(=O)(=O)N3CCCC3)CC2)cc1 | 4.73 |
| COc1cccc(NC(=O)CN2C(=O)NC3(CCCc4ccccc43)C2=O)c1 (stereo not shown) | 13.1 |
| Cn1ncc([N+](=O)[O-])c1C(=O)NCc1ccccc1 | 17.1 |
| Cc1c(C)n(Cc2ccccc2)c2ccc(C(=O)OCCN(C)C)cc12.O=C(O)CCC(=O)O | 8.12 |
| Cc1cccc(NC(=O)C2CCN(C(=O)c3ccc(F)cc3)CC2)n1 | 10.7 |
